Laboratory results: the RNAGym collection of RNA variant scans (doi:10.7554/elife.90254)
The source gives no read counts; variants with many changes may rest on few reads.

B1: LINE1-mini (parent)
chain: GGCAGAGCUCAACACAGCGUGGCAAAGUGGCUGUGGCUAGACUGCC

Variants of: B1
Experiment: self-cleavage, relative activity (ratio to wild type); higher = more cleavage; in vitro, sequencing; the parent is a self-cleaving ribozyme
Work on A4U A6G G19A G35U G40U yielded a self-cleavage of 0.13.
Variant G22U G27U C37A C45U has a self-cleavage of 0.01.
A11C C31U U38A A41C showed a self-cleavage of 0.01.
With G1C G22A C45U the self-cleavage was 0.12.
Work on G17C A24C U38C yielded a self-cleavage of 0.24.
In the case of G22A G29U C31A, the self-cleavage is reported as 0.35.
Variant A4C A14U A26U G30A has a self-cleavage of 0.44.
For G1A C10U G40A C45G, the self-cleavage was 0.03.
For C8U G22A U32C, the self-cleavage was 1.12.
For C10G G30U G33C, the self-cleavage was 0.01.
G2C A6G C15A G19A showed a self-cleavage of 0.02.
With G1A G22A G33U G36C C46A the self-cleavage was 0.03.
Work on C3G U9A U43A yielded a self-cleavage of 0.15.
Variant C3U U20A C23A U32A has a self-cleavage of 0.03.
Work on G21A A26U G27C yielded a self-cleavage of 0.63.
G2C G5A G27A C31U A39C G40A C45A gave a self-cleavage of 0.01.
In the case of U9G C18A A26C G36A A39G G44C, the self-cleavage is reported as 0.01.
With A4U G21A C45U the self-cleavage was 0.17.
G1U G30A C31G G35C showed a self-cleavage of 0.08.
In the case of U9G U34A G44A, the self-cleavage is reported as 0.1.
In the case of G27A U34C C46A, the self-cleavage is reported as 0.05.
Variant G5A C10G G17C G22C G30C has a self-cleavage of 0.01.
C3G G19C A25U showed a self-cleavage of 0.15.
Work on G1C A26C G29U C42A yielded a self-cleavage of 0.01.
For G2U A6G C8G U38C G40C, the self-cleavage was 0.02.
In the case of C18A C23A C31A G36A C45U, the self-cleavage is reported as 0.06.
For G21A C42A C46G, the self-cleavage was 0.05.
In the case of U9G G27U G35U C37G G44U, the self-cleavage is reported as 0.01.
Variant C3G A12C C15U G29U G30A has a self-cleavage of 0.06.
G1C C3U A14G A16U U20A G22C G30C U34A U43C showed a self-cleavage of 0.1.
In the case of G29A G30U G40U, the self-cleavage is reported as 0.07.
G1U G30A C31U gave a self-cleavage of 0.03.
U9G C10A G21A G27U G44U C46A showed a self-cleavage of 0.02.
Variant C13U U20A G22A has a self-cleavage of 0.11.
U9G C31A C42G gave a self-cleavage of 0.02.
With G19A G22A A26U G27U the self-cleavage was 0.34.
Variant G7C C10G A11G G21C U32A has a self-cleavage of 0.01.
U9A G44A C45U showed a self-cleavage of 0.13.
With U20C U34G G36A U38C the self-cleavage was 0.07.
In the case of C8U U9C A12C C13G, the self-cleavage is reported as 0.05.
C3U U32A C37U gave a self-cleavage of 0.06.
With C8G C18A G21U G29C the self-cleavage was 0.03.
Work on G1U C8G C10A G17U A26C C31U C46U yielded a self-cleavage of 0.01.
For A4G C8G G40A, the self-cleavage was 0.05.
For C23G G27A A41U, the self-cleavage was 0.25.
With G5U C10U A14U A39C the self-cleavage was 0.04.
Variant G1C A24U A26C U34G C45G has a self-cleavage of 0.05.
Variant C8U G27A G36C has a self-cleavage of 0.11.
For A6U G33A G40U, the self-cleavage was 0.11.
G2A U9C A14G gave a self-cleavage of 0.04.
G7A C10G A16G A25G C37A gave a self-cleavage of 0.01.
In the case of A25U G30C A41G G44C, the self-cleavage is reported as 0.
G1U A11U G33C C42U C45U gave a self-cleavage of 0.01.
In the case of G5U A14G G17U A41U U43A, the self-cleavage is reported as 0.08.
Work on A11G G17C G19U C23G G27C U32C C45U yielded a self-cleavage of 0.02.
With C10A G22U C46A the self-cleavage was 0.01.
Work on A6G U28C U34G G36U yielded a self-cleavage of 0.02.
In the case of A25U G29U C37A, the self-cleavage is reported as 0.09.
Work on C18U U38G C46G yielded a self-cleavage of 0.
For A16G C18A G19A A25G, the self-cleavage was 0.
Work on C8G C10U C15G G30A yielded a self-cleavage of 0.01.
With C15A G21A G27C the self-cleavage was 0.
Work on G2A A14U G27C G40A C45U yielded a self-cleavage of 0.02.
In the case of G35U A41C C45G, the self-cleavage is reported as 0.06.
With G7A G35C U43C the self-cleavage was 0.33.
With G7U G30U C31G G33U C45U the self-cleavage was 0.03.
Work on C10U A12C C18A C23U G35C yielded a self-cleavage of 0.
With G1A U9C U32A the self-cleavage was 0.
Variant C10A A12G A25G G27U A39U G40A U43G has a self-cleavage of 0.
In the case of G2C A11G C13G G44U, the self-cleavage is reported as 0.03.
C10G C18A A26C showed a self-cleavage of 0.04.
For C10A C31A U38C C46A, the self-cleavage was 0.01.
With A12C U20G C42G C45A the self-cleavage was 0.02.
Variant C15A G30A C31A has a self-cleavage of 0.01.
A11U A12G G29U gave a self-cleavage of 0.
Variant C8U C18A C31U C37U has a self-cleavage of 0.07.
In the case of A12U U38A A41C, the self-cleavage is reported as 0.02.
For C3A A25C G40A, the self-cleavage was 0.1.
Variant G2C C23G A24U G33C G44A has a self-cleavage of 0.01.
Work on A26C U28C A41U G44U yielded a self-cleavage of 0.
A14C A24G C31G C37A U43A gave a self-cleavage of 0.02.
A6U G17A A25U U28C G30A G33U showed a self-cleavage of 0.1.
G2C G7A G21A G35U showed a self-cleavage of 0.5.
